Experimental data taken from paper PMC4336329 (PLoS ONE, 2015).
Hit rate of the full screen: of about 310,000 compounds, about 14,000 (4.5%) showed an effect of 50% or more. Effects have a minus sign here. The list shows a part of the results.

Molecular target: human ether-à-go-go-related gene (hERG) potassium channel (human, UniProt Q12809)
Test: primary screen, population patch clamp on CHO cells stably expressing hERG
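Note: peak tail current of the secondary pulse compared with the same well before compound.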

Chain of human ether-à-go-go-related gene (hERG) potassium channel (Q12809 whole entry, looked up): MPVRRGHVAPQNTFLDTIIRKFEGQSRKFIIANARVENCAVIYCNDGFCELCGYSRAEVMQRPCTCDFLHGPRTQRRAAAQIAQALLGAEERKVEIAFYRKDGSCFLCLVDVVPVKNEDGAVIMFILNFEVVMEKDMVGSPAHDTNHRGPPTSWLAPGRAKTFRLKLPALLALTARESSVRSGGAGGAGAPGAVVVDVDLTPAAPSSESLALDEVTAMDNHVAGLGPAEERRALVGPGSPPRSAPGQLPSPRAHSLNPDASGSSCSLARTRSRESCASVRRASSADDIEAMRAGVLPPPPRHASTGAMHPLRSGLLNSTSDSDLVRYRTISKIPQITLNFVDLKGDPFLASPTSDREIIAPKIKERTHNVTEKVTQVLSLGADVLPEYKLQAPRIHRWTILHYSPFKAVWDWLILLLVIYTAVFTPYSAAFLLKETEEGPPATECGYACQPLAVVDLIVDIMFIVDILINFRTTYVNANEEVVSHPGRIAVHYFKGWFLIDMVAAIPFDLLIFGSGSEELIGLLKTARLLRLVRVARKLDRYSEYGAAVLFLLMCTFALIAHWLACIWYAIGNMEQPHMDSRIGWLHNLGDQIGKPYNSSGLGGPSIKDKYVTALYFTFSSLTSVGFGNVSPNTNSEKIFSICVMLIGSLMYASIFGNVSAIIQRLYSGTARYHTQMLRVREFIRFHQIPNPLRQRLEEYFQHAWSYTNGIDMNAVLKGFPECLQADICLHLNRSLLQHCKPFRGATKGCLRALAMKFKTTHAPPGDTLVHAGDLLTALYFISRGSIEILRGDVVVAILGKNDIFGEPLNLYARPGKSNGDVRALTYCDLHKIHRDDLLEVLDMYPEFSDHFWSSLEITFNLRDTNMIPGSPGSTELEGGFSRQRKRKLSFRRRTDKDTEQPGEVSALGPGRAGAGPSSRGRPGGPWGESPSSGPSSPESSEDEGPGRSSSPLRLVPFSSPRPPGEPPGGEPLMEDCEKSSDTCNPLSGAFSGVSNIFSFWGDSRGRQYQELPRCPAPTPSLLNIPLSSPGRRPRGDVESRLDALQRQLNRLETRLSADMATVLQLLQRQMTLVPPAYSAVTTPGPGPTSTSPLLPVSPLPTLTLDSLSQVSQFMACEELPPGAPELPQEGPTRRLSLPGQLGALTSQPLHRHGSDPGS

First: O=c1ccc(N=Nc2ccccc2)ccc1O
Second: Cc1ccc(NC(=O)C(c2ccccc2)c2ccccc2)c(O)c1
The “hERG current change (%, negative = inhibition) at 10uM” value of the first is higher: 12.7% for the first, -8.04% for the second.

Going from `COc1ccccc1CNC(=O)C(NC(=O)c1ccc(C)cc1)C(C)C` (stereo not shown) to `COC(=O)c1ccc(/C=C(\C#N)C(=O)NC(C)c2ccccc2)cc1` (stereo not shown), the “hERG current change (%, negative = inhibition) at 10uM” value rises from -4.06% to 10.6%.

Compared with `CC1=C(C(N)=O)C(c2ccccc2F)n2nc(CCCO)nc2N1` (stereo not shown), `Cn1cc(CCNC(=O)c2ccc3nc(Cc4ccccc4F)oc3c2)cn1` is lower in “hERG current change (%, negative = inhibition) at 10uM” value: 20.3% for the first, -12.1% for the second.

Compared with `CCOc1ccc(/C=C/C(=O)c2cc(Br)ccc(=O)c2O)cc1`, `COc1ccc(-c2cc(C(=O)Nc3ccc(Br)cc3)no2)cc1` is higher in “hERG current change (%, negative = inhibition) at 10uM” value: -6.36% for the first, 5.97% for the second.

First: CCOC(=O)C1(CCCc2ccccc2)CCN(C2CCC2)CC1
Second: CCOC(=O)N1CCC(n2c(SCC(=O)NCCC3=CCCCC3)nc3ccccc3c2=O)CC1
The “hERG current change (%, negative = inhibition) at 10uM” value of the first is lower: -74.8% for the first, -59.3% for the second.

Compared with `Cc1cc(C)c2nc(N3CCOCC3)c(C#N)cc2c1`, `CC(=O)N1CCC(N(CCN2CCOCC2)C(=S)Nc2ccc(C)cc2C)CC1` is lower in “hERG current change (%, negative = inhibition) at 10uM” value: 24.5% for the first, 1.48% for the second.

First: Cc1cc(Cl)ccc1NC(=O)CCN1C(=O)NC(C)(C)C1=O
Second: CCN1C(=O)C(O)(C2COC(C)(C)CC2=O)c2cc(Br)ccc21 (stereo not shown)
The “hERG current change (%, negative = inhibition) at 10uM” value of the first is higher: 14.8% for the first, -0.733% for the second.

Going from `COc1ccc(CC(=O)N(C)CC(=O)Nc2c(C)cccc2C)cc1S(=O)(=O)N1CCOCC1` to `COc1ccccc1C(=O)COC(=O)c1cc(S(=O)(=O)N2CCCCC2)ccc1N1CCOCC1`, the “hERG current change (%, negative = inhibition) at 10uM” value falls from 3.28% to -6.99%.

Going from `CCOC(=O)N1CCN(CC(O)COc2ccccc2C(C)CC)CC1.Cl` (stereo not shown) to `COc1ccc(CN2CCN(C(=O)CC(C)C)CC2)cc1OC`, the “hERG current change (%, negative = inhibition) at 10uM” value falls from 0.934% to -0.529%.

Compared with `Nc1c(C(=O)NCc2ccco2)sc2nc3c(cc12)C(=O)CCC3`, `O=C(NCc1ccco1)c1cccc2ccccc12` is higher in “hERG current change (%, negative = inhibition) at 10uM” value: -16.9% for the first, 3.37% for the second.

First: O=C(NC1CCCCC1)c1cc([N+](=O)[O-])ccc1N1CCCC1
Second: CC(=O)NCC(=O)N(Cc1ccco1)C1(C(=O)NC2CCCCC2)CCCCC1
The “hERG current change (%, negative = inhibition) at 10uM” value of the first is higher: -0.526% for the first, -6.49% for the second.

Going from `N#CCN1C(=O)NC2(CCCc3sccc32)C1=O` (stereo not shown) to `COc1ccc(/C(O)=C2/C(=O)C(=O)N(CC3CCCO3)C2c2cccc(O)c2)cc1` (stereo not shown), the “hERG current change (%, negative = inhibition) at 10uM” value falls from 11.1% to 0.277%.

Going from `CC(C)(C)NC(=O)CSc1nc(N)c(-c2ccccc2)c(=O)[nH]1` to `COC(=O)c1ccc(C)c(NC(=O)c2c(-c3ccccc3)noc2C)c1`, the “hERG current change (%, negative = inhibition) at 10uM” value falls from 15.7% to -11.9%.

Going from `CCOC(CCn1c(SCC(=O)NC2CCCC2)nc2ccccc2c1=O)OCC` to `CN(c1ccc(OCC(=O)OCC(=O)NC2CCCC2)cc1)S(=O)(=O)c1ccc2ccccc2c1`, the “hERG current change (%, negative = inhibition) at 10uM” value rises from 0.376% to 3.07%.

Going from `COc1ccc(C)cc1-n1nnnc1SCC(=O)NNC(=O)c1ccc([N+](=O)[O-])cc1` to `COc1ccc(C(=O)N2CCN(c3nnnn3-c3ccccc3)CC2)cc1OC`, the “hERG current change (%, negative = inhibition) at 10uM” value rises from -30.6% to -30.5%.

Going from `O=C(c1ccccc1)C(O)c1ccccc1` (stereo not shown) to `COc1cccc(C(=O)Nc2cccc(OCC(=O)c3ccccc3)c2)c1`, the “hERG current change (%, negative = inhibition) at 10uM” value falls from 17.4% to 15.8%.

Compared with `CC(Nc1nc(-c2ccc(F)cc2)cs1)c1nc2cc(Cl)c(Cl)cc2n1CCCO` (stereo not shown), `COC(=O)CSc1ccc2nnc(-c3ccc(F)cc3)n2n1` is lower in “hERG current change (%, negative = inhibition) at 10uM” value: 3.69% for the first, -43.7% for the second.

First: CCC(C)NC(=O)c1cc2cc3ccc(OC)cc3nc2s1 (stereo not shown)
Second: CCn1c(CNC(=O)c2cc(OC)c(OC)c(OC)c2)cc2cc(C)ccc21
The “hERG current change (%, negative = inhibition) at 10uM” value of the first is lower: 4.84% for the first, 18.5% for the second.

First: CCOC(=O)c1cc(-c2ccccc2C)nn1CC1CC(c2ccc(OC)cc2)=NO1 (stereo not shown)
Second: CCCn1c(C)cc(C(=O)COc2ccc(-c3nnco3)cc2)c1C
The “hERG current change (%, negative = inhibition) at 10uM” value of the first is lower: 3.54% for the first, 9.87% for the second.

First: COc1ccc(NC(=O)C2C3C=CC(C3)C2C(=O)NCc2ccco2)c(OC)c1 (stereo not shown)
Second: COC(=O)c1ccc(Cl)c(NC(=O)CN(c2ccc(OC)c(OC)c2)S(C)(=O)=O)c1
The “hERG current change (%, negative = inhibition) at 10uM” value of the first is higher: 12.3% for the first, 0.0568% for the second.

Compared with `Cc1ccc(NS(=O)(=O)c2ccc(-n3cccn3)cc2)cc1C`, `CS(=O)(=O)N1CCc2cc(C(=O)Nc3ccc(Br)cc3)ccc21` is lower in “hERG current change (%, negative = inhibition) at 10uM” value: 24.4% for the first, 14.3% for the second.

First: Nc1ccc(O)cc1
Second: CC(C)C(=O)NNc1nc2ccccc2s1
The “hERG current change (%, negative = inhibition) at 10uM” value of the first is higher: 10.9% for the first, -27.4% for the second.

Going from `O=c1oc2ccccc2n1Cc1cccc(C(F)(F)F)c1` to `COc1cc(NC(=O)c2ccno2)cc(C(=O)Nc2cccc(C(F)(F)F)c2)c1`, the “hERG current change (%, negative = inhibition) at 10uM” value falls from -9.86% to -44.9%.

Compared with `CC(=O)c1ccc(OC(C)C)c(Cc2c(O)[nH]c(=S)[nH]c2=O)c1`, `CNC(=S)NNC(=O)Cc1ccc(OC)c(OC)c1` is lower in “hERG current change (%, negative = inhibition) at 10uM” value: 21.8% for the first, 10.7% for the second.

Going from `CN1CCN(S(=O)(=O)c2ccc(NC(=O)COc3ccccc3Cl)cc2)CC1` to `CN(CC(=O)N1CCCC1)S(=O)(=O)c1ccc2ccccc2c1`, the “hERG current change (%, negative = inhibition) at 10uM” value falls from 20.1% to -8.93%.

First: COc1ccc(CCNC(=O)CCCn2nc(C)c([N+](=O)[O-])c2C)cc1OC
Second: COc1ccc(CCNc2ncccc2C#N)cc1OC
The “hERG current change (%, negative = inhibition) at 10uM” value of the first is lower: 3.33% for the first, 22.8% for the second.

Going from `COC(=O)Cn1c(=NC(=O)CN2C(=O)CCC2=O)sc2cc(S(N)(=O)=O)ccc21` to `Cn1c(CCC(=O)Nc2cc(S(C)(=O)=O)ccc2Cl)nc2cc(S(=O)(=O)N3CCOCC3)ccc21`, the “hERG current change (%, negative = inhibition) at 10uM” value falls from 14.5% to -25.4%.

Going from `CCOc1cnc(-c2ccccc2F)o1` to `Cc1cc(-c2nn(-c3ccccc3F)cc2CNCCc2cnccn2)c(C)s1`, the “hERG current change (%, negative = inhibition) at 10uM” value falls from 14.3% to -52.3%.

Compared with `Cl.Fc1ccc(C(c2nnnn2Cc2cccs2)N2CCN(C3CCCC3)CC2)cc1` (stereo not shown), `COc1ccccc1/C=C/C=N/N1CCN(Cc2ccc(Cl)cc2)CC1.Cl` is higher in “hERG current change (%, negative = inhibition) at 10uM” value: -67.4% for the first, 7.74% for the second.

First: CCOC(=O)CNC(=O)C(Cc1ccccc1)NS(=O)(=O)c1cccs1 (stereo not shown)
Second: Cc1oc(-c2ccccc2Cl)nc1CS(=O)CC(=O)NCCc1ccccc1 (stereo not shown)
The “hERG current change (%, negative = inhibition) at 10uM” value of the first is higher: -2% for the first, -17.5% for the second.

Compared with `Nc1nc(N)nc(-c2cc(C(F)(F)F)ccc2Cl)n1`, `COc1ccc(N2CCN(c3ccnc4cc(Cl)ccc34)CC2)cc1` is lower in “hERG current change (%, negative = inhibition) at 10uM” value: 11.9% for the first, -36.5% for the second.

First: O=S(=O)(NCCN1CCOCC1)c1cc(Cl)c(Cl)cc1Cl
Second: O=S(=O)(c1cc(F)cc(F)c1)N1CCN(c2ncccn2)CC1
The “hERG current change (%, negative = inhibition) at 10uM” value of the first is higher: 6.12% for the first, 5.03% for the second.

Going from `CCC(=O)NC(=S)Nc1ccccc1OC` to `COC(=O)c1ccc(C(=O)OC)c(NC(=O)CN(C)Cc2cccc(Cl)c2Cl)c1`, the “hERG current change (%, negative = inhibition) at 10uM” value rises from -13.9% to 4.6%.

First: O=C(NCC1CCCO1)C1CC(c2ccccc2Cl)=NO1 (stereo not shown)
Second: CCCS(=O)(=O)N1CCCC(C(=O)NCc2ccc3c(c2)OCO3)C1 (stereo not shown)
The “hERG current change (%, negative = inhibition) at 10uM” value of the first is higher: -2.99% for the first, -11% for the second.

First: CCCOC1CCCN(C(=O)c2cc(COc3c(F)cccc3F)on2)C1 (stereo not shown)
Second: COc1ccc(CCN(C)C2CCCN(C(=O)Cn3cccn3)C2)cc1OC (stereo not shown)
The “hERG current change (%, negative = inhibition) at 10uM” value of the first is lower: -14.3% for the first, -6.28% for the second.

First: O=C(CN(c1cccc(Br)c1)S(=O)(=O)c1ccccc1)N/N=C/c1cc([N+](=O)[O-])ccc1O
Second: O=C(N/N=C/c1cccc(OC2CSC2)c1)c1ccccc1O
The “hERG current change (%, negative = inhibition) at 10uM” value of the first is lower: -3.59% for the first, 10.3% for the second.

Compared with `CC(=O)N1N=C(c2ccccc2)CC1c1ccc2c(c1)OCO2` (stereo not shown), `O=C(O)C1Oc2cc3ccccc3cc2O1` is higher in “hERG current change (%, negative = inhibition) at 10uM” value: 1.98% for the first, 9.32% for the second.

First: Cc1cc(-c2n[nH]c(=S)n2Cc2ccco2)n(C)n1
Second: CCn1c(COc2ccc(=O)n(-c3ccccc3)n2)nnc1SCc1cccc(OC)c1
The “hERG current change (%, negative = inhibition) at 10uM” value of the first is higher: 14.6% for the first, -39.1% for the second.

Going from `COc1ccc(CNCCc2ccc(Cl)cc2)cc1OCc1ccccc1` to `CN(C)c1ccc(NC(=S)N(CCc2ccccc2)C2CC(=O)N(c3c(Cl)cccc3Cl)C2=O)cc1` (stereo not shown), the “hERG current change (%, negative = inhibition) at 10uM” value rises from -75.6% to -3.52%.

First: CC(C)Oc1ccc(C(CC(=O)O)NC(=O)CSc2ncn[nH]2)cc1 (stereo not shown)
Second: COc1ccc(CNC(=O)C2CCN(S(=O)(=O)c3ccc4nc5c(c(C(=O)O)c4c3)CC(C)CC5)CC2)cc1 (stereo not shown)
The “hERG current change (%, negative = inhibition) at 10uM” value of the first is lower: -2.91% for the first, 15.1% for the second.

First: CCCCc1ccc(NC(=O)N2CCN(c3cc(C)nc4ccccc34)CC2)c(C)c1
Second: Cc1cccc(/C=C2\Sc3ccc(C(=O)N4CCCCC4)cc3N(C)C2=O)c1
The “hERG current change (%, negative = inhibition) at 10uM” value of the first is lower: -61.6% for the first, 12.1% for the second.

First: COc1ccc(/C=C\c2cc(OC)c(OC)cc2CC[N+](C)(C)C)cc1OC.[I-]
Second: COc1ccc(C2=NOC3(CC(=O)N(c4ccc(C)cc4)C3=O)C2)c(OC)c1 (stereo not shown)
The “hERG current change (%, negative = inhibition) at 10uM” value of the first is higher: 8.77% for the first, 4.08% for the second.

Going from `COc1cccc(C2C3=C(CC(C)(C)CC3=O)Nc3cc4c(cc32)OCO4)c1` (stereo not shown) to `CC1=C(C(=O)OC2CCCCC2)C(c2ccc(N(C)C)cc2)NC(=O)N1` (stereo not shown), the “hERG current change (%, negative = inhibition) at 10uM” value rises from -12.8% to 11.1%.

Going from `CC1CCN(C(=O)CSc2nc(=O)n3ccccc3n2)CC1` to `CC(C)CN(CC(C)C)c1nc(N)c(C#N)c(CC#N)c1C#N`, the “hERG current change (%, negative = inhibition) at 10uM” value falls from 8.67% to -36%.
